{"source": "PubChem BioAssay AID2546", "about": "(National Center for Advancing Translational Sciences (NCATS), 2010)", "note": "“And” between values parts separate entries of the source, which are not always exact repeats. Equal entries are not always repeated. About 11,000 (3.5%) of roughly 310,000 compounds were called active. This list was built around the results that the source calls inconclusive (neither active nor inactive); the mix of calls is not that of the screen. Calls follow the shape of the dose curve; as a rule, active = well fitted inhibition curve with a large enough effect; inconclusive = small, poorly fitted or top-dose-only effect, or effect the other way; inactive = flat fitted curve, though single readings scatter. No potency is given beside an inconclusive call; the fits are too rough. Potency is read from the fitted curve at half-maximal effect; tags tell the direction and shape of the fitted curve.", "data": [{"experiment": "VP16 counterscreen qHTS for inhibitors of ROR gamma transcriptional activity;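 also: Gal4-VP16 expression switched on by copper sulfate through the metallothionein promoter; nearly all actives have a fitted effect of over 50% in size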", "details": "Drosophila S2 Gal4-VP16 UAS-luciferase, luminescence, 20 h; series mostly up to 53.6 µM", "values": [{"compound": "COc1cccc(NC(=S)N2CCN(C(c3ccccc3)c3ccccc3)CC2)c1", "Potency": "active: 8.91 µM"}, {"compound": "Cc1ccc(NC(=S)N(Cc2ccccc2)Cc2cccs2)c(C)c1", "Potency": "inconclusive [inhibitor, single point]"}, {"compound": "CC(=O)N(C)c1ccc(NC(=S)Nc2cccc3ccccc23)cc1", "Potency": "inconclusive [inhibitor, single point]"}, {"compound": "COCCn1c(=O)cnc2cnc(Nc3ccccc3)nc21", "Potency": "inconclusive [inhibitor, single point]"}, {"compound": "CCOC(=O)N1CCN(S(=O)(=O)c2ccc(OCC)c(C)c2)CC1", "Potency": "inconclusive [inhibitor, single point]"}, {"compound": "CCCN1Cc2cccc(C(=O)NCc3ccc(C)cc3)c2C1=O", "Potency": "inactive"}, {"compound": "NC(=S)N/N=C/c1c[nH]c2ccccc12", "Potency": "inconclusive [inhibitor, single point]"}, {"compound": "CC1CCN(C2CC(=O)N(c3ccccc3)C2=O)CC1", "note": "(stereo not drawn)", "Potency": "inconclusive [inhibitor, single point]"}, {"compound": "CCC1Sc2ccc(S(=O)(=O)CCC(=O)Nc3ccc(OC(F)(F)F)cc3)cc2NC1=O", "note": "(stereo not drawn)", "Potency": "inconclusive [inhibitor, single point]"}, {"compound": "CCSc1nnc2n1C(C)(C)Cc1ccccc1-2", "Potency": "inactive"}, {"compound": "O=C(N/N=C/c1cccs1)/C(=C/c1ccccc1)NC(=O)c1ccccc1", "Potency": "inconclusive [inhibitor, single point]"}, {"compound": "CC(=O)N/C(=N/c1nc(C)cc(C)n1)Nc1ccc(F)cc1F", "Potency": "inactive"}, {"compound": "Cc1cc(C(=O)Nc2c(C)nn(Cc3ccccc3)c2C)on1", "Potency": "inconclusive [inhibitor, single point]"}, {"compound": "CCNc1oc(/C=C/c2ccc(OCC)cc2)nc1C#N", "Potency": "inactive"}, {"compound": "Cc1ccc(NC(=O)C2CCCN(S(=O)(=O)c3c(C)noc3/C=C/N(C)C)C2)cc1F", "note": "(stereo not drawn)", "Potency": "inactive"}, {"compound": "CCOC(=O)c1c(N)sc(C(O)(C(F)(F)F)C(F)(F)F)c1-c1ccccc1", "Potency": "inconclusive [inhibitor, single point]"}, {"compound": "COc1cccc(C(=O)N/N=C(/c2ccccc2)c2ccccn2)c1", "Potency": "active: 0.141 µM"}, {"compound": "O=C(Nc1ccc(N2CCN(C(=O)c3cccs3)CC2)cc1)c1ccc(F)cc1", "Potency": "inactive"}, {"compound": "CCOc1ccc(-c2[nH]nc3c2C(c2ccc4c(c2)OCO4)C(C#N)=C(N)O3)cc1OC", "note": "(stereo not drawn)", "Potency": "inactive"}, {"compound": "CC1=NN(c2ccc(Cl)cc2)C(=O)C1", "Potency": "inconclusive [inhibitor, partial curve, poor fit]"}, {"compound": "O=C(NC(=S)NCCN1CCOCC1)c1cccc(Cl)c1", "Potency": "inconclusive [inhibitor, single point]"}, {"compound": "Cc1cccc(C(=O)O/N=C(\\N)CS(=O)(=O)c2ccccc2)c1", "Potency": "inconclusive [inhibitor, partial curve]"}, {"compound": "O=[N+]([O-])c1ccccc1S(=O)(=O)Nc1cccc2cccnc12", "Potency": "active: 1.41 µM and active: 1 µM"}, {"compound": "Cn1c(SCc2ccccc2)nc2ccsc2c1=O", "Potency": "inconclusive [inhibitor, single point]"}, {"compound": "O=C(N/N=C/c1cccs1)c1cccc(NC(=O)c2ccccc2Cl)c1", "Potency": "active: 14.1 µM"}, {"compound": "O=C1NCCCCC1NS(=O)(=O)c1cccc(C(F)(F)F)c1", "note": "(stereo not drawn)", "Potency": "inactive"}, {"compound": "CCc1cccc(CC)c1NC(=O)COC(=O)c1ccccc1-c1nc2ccccc2s1", "Potency": "inconclusive [inhibitor, single point]"}, {"compound": "O=C(NCc1cnc2ccccn12)C1CCC(=O)N(Cc2cccc(F)c2)C1", "note": "(stereo not drawn)", "Potency": "inactive"}, {"compound": "CCCC(C)C(=O)Nc1nc(C)c(-c2csc(Nc3cc(OC)ccc3OC)n2)s1", "note": "(stereo not drawn)", "Potency": "inconclusive [inhibitor, single point]"}, {"compound": "COc1ccc(C(CNC(=O)COc2ccc(Cl)cc2C)N2CCCCC2)cc1", "note": "(stereo not drawn)", "Potency": "inconclusive [inhibitor, single point]"}, {"compound": "C/C(=N\\NC(=O)C1CCCC1)c1ccc(Cl)cc1Cl", "Potency": "inactive"}, {"compound": "c1cc2c(cc1C1CCCCC1)c1c3n2CCN[C@H]3CCC1", "Potency": "inconclusive [inhibitor, single point]"}, {"compound": "Cc1ccc(/C=C/C(=O)c2ccc(N3CCOCC3)cc2)s1", "Potency": "inconclusive [inhibitor, single point]"}, {"compound": "O=C(NC1CCCC1)C(c1ccncc1)N(Cc1ccccc1)C(=O)c1ccc(-c2ccccc2)[nH]1", "note": "(stereo not drawn)", "Potency": "inconclusive [inhibitor, partial curve, poor fit]"}, {"compound": "CNCCCNC(=O)c1ccc(/C=N/O)nc1", "Potency": "inactive"}, {"compound": "CCCNC(=O)C1CC(c2ccc(C(F)(F)F)cc2)=NO1", "note": "(stereo not drawn)", "Potency": "inactive"}, {"compound": "COc1ccc(/C=N/NC(=O)c2nc(-c3ccccc3)n(-c3ccccc3)n2)c(O)c1", "Potency": "active: 6.31 µM"}, {"compound": "O=C(NNC(=S)NCc1ccccc1)c1ccc2c(c1)OCO2", "Potency": "inconclusive [inhibitor, partial curve, poor fit]"}, {"compound": "COC(=O)[C@@]1(Cc2ccc(F)cc2)[C@H]2c3cc(C(=O)N4CCCC4)n(CC4CC4)c3C[C@H]2CN1C(=O)c1ccccc1", "Potency": "inactive"}, {"compound": "O=C(CCC(=O)c1ccc(Br)cc1)Nc1cccnc1", "Potency": "inactive"}, {"compound": "COc1ccccc1NC1=NC(CO)(CO)CS1", "Potency": "inactive"}, {"compound": "COc1ccc(C(=O)NNc2ccccc2)cc1OC", "Potency": "inactive"}, {"compound": "CCn1c(=NC(=O)CCS(=O)(=O)c2ccccc2)sc2cccc(OC)c21", "Potency": "active: 15.8 µM"}, {"compound": "Cc1csc(-c2cnn(-c3ccccc3)c2NC(=O)c2cccc(C(F)(F)F)c2)n1", "Potency": "inconclusive [inhibitor, single point]"}, {"compound": "CN1C(=O)C(CC(=O)O)S/C1=N\\N=C\\c1ccc(O)cc1O", "note": "(stereo not drawn)", "Potency": "active: 20 µM"}, {"compound": "Cc1ccc(-c2ccc(S(=O)(=O)Nc3cccnc3)cc2)cc1", "Potency": "inconclusive [inhibitor, partial curve]"}, {"compound": "CC(=O)Nc1cccc(-c2nc3ccc(NC(C)=O)cc3s2)c1", "Potency": "inconclusive [inhibitor, single point]"}, {"compound": "N#CCc1ccc(NS(=O)(=O)c2ccc(C3CCCCC3)cc2)cc1", "Potency": "inconclusive [inhibitor, single point]"}]}]}
